± gives the standard deviation of the averaged measurements. The list shows a part of the results.
These sequences were tested on PfAP2-EXP AP2 domain (GST-tagged) (assay: gcPBM binding intensity (ln(normalized median fluorescence intensity)); higher = stronger DNA binding).
Procedure, shortened: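 GST-tagged P. falciparum DNA-binding domains produced in E. coli were incubated for 1 h on an Agilent 4 × 180k array of primer-extended double-stranded 36-bp intergenic genomic probes with negative controls. Binding intensity is the highest Masliner-normalised natural-log median intensity across replicate spots of either probe orientation, with bound protein detected by Alexa488 anti-GST antibody at 488 nm.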

| Sequence | gcPBM binding intensity (ln) |
| --- | --- |
| AAAGAAATAAGGTGCACACATATACATATATATATA [CACACA_site429] | 9.78 ± 0.11 |
| TAATAATAGTACTGACATCAAAATCTTATTAAAAAT [GTGCAC_negctrl_site308] | 8.29 ± 0.43 |
| TTCTTTTTTATTTTTCAACACACATAATAAATTTCT [CACACA_site8253] | 8.89 ± 0.28 |
| AAAAACAATCATTTTAAATAAAAATCTCTAATTTAA [GTGCAC_negctrl_site138] | 7.67 ± 0.35 |
| ATTTCTTTAATATACACACACCAAAACAAAAAAAAA [CACACA_site6416] | 8.72 ± 0.45 |
| TTTTCATTTTTTTTTTTTTTTTTTTTTCTTTTTTTT [CACACA_negctrl_site1312] | 8.12 ± 0.67 |
| ATTTGTTCATTTGGTTGTACATAATTTATTTTTATA [XGTACX_site785] | 8.75 ± 0.33 |
| GTTGTGTAATTCGTAACACACATAAAATATATATAA [CACACA_site6059] | 8.53 ± 0.45 |
| ATATAGTTCGATATAGTTAGTATGAATTGAAAAATA [CACACA_negctrl_site1826] | 8.38 ± 0.42 |
| AAAAAAATAAAACACACACACAAAAAAATAAAAATA [CACACA_site465] | 8.71 ± 0.47 |
| TTTTTAAAATATTTAACACACAATTTTAATGCATAA [CACACA_site6036] | 8.32 ± 0.27 |
| CACCCATACACATACAAACACACATTCTATATATAT [CACACA_site1600] | 8.91 ± 0.18 |
| GAAATTAAATGACATACACACTATATTATATATTTT [CACACA_site5693] | 8.34 ± 0.35 |
| TAGATAGATTAAAATACATGCATATTATTAAAAAAT [TGCATGCA_site739] | 8.84 ± 0.13 |
| ATTTAATGTATTTTGCGTACGAATTATTTTATTTCA [XGTACX_site7331] | 8.78 ± 0.31 |
| AATCATAAACATTATGCACACAAAAATAAAAAAAAA [CACACA_site8289] | 8.63 ± 0.29 |
| TATCTTCAATGTGAAAGTACTTAAATTGTTATAAAA [XGTACX_site2586] | 8.38 ± 0.49 |
| AGCATAAAAATGATATGTACATATATATATATATAT [XGTACX_site2836] | 10 ± 0.39 |
| CATACATACATACATACACACATACATATGTATATA [CACACA_site7216] | 9.22 ± 0.2 |

| Sequence | gcPBM binding intensity (ln) |
| --- | --- |
| TGGAATAAAAAAAGGAGTACAATTAATTATTCTTAA [XGTACX_site8299] | 8.57 ± 0.41 |
| TATATATATATATATGTGCACATATTTATATGTTTT | 10.1 ± 0.33 |
| ACTTATAATATTTAGTGTACATATTGTGACTAATAC [XGTACX_site1508] | 8.62 ± 0.25 |
| AAAAAAAAAACAAATGCATGTAATATAAGAATTACA [TGCATGCA_site908] | 9.02 ± 0.34 |
| ATTTTAAAAAATTAATGTACTTAATTAATACTGAAA [XGTACX_site7702] | 8.18 ± 0.32 |
| TATTTATAAATTTACACACACACATGTGAACATAAA [CACACA_site1909] | 8.63 ± 0.41 |
| TATCAAAAAAAAAGTAGTACGATAATAGTTTCCCAA [XGTACX_site1812] | 8.66 ± 0.53 |
| TGAATTGTAATTTATAATATACGTGGTTTCTACTTA [CACACA_negctrl_site559] | 8.18 ± 0.41 |
| ATTTAATAACGGCATGCATGTCCTTATATAAATTTA [TGCATGCA_site1012] | 9.24 ± 0.55 |
| TATTATATATTATATAGTACATATTTATGTAAGAGG [XGTACX_site3099] | 8.67 ± 0.35 |
| CCTTACCAAATAATATGTACACATTTAATGTTATAT [XGTACX_site7840] | 8.59 ± 0.23 |
| TATCAGTATACAACAACACACATAATGTTTGTCATC [CACACA_site2980] | 8.46 ± 0.42 |
| CACTTAAAAAAAATACGTACACATATATATATATAT [XGTACX_site2054] | 10.1 ± 0.33 |
| CAAAAATAAATATAAACACACAATAAATAAATAAAT [CACACA_site891] | 8.75 ± 0.58 |
| GATCATAATATTTAAAAGAATATATATAAAAAGGAA [XGTACX_negctrl_site310] | 8.66 ± 0.39 |
| ATGGTATCTTTTAGAAGTACATCATGATAATAATTT [XGTACX_site5544] | 8.47 ± 0.4 |
| GTATTAATTTATATATGTACATATGTGATATATATA [XGTACX_site5825] | 8.7 ± 0.28 |
| CAAAATTAATAAGTCACACACACATATATAATATAT [CACACA_site798] | 8.73 ± 0.45 |
| TATATTTATACAATATGTACATATTATATATATATA [XGTACX_site3098] | 9.57 ± 0.26 |

| Sequence | gcPBM binding intensity (ln) |
| --- | --- |
| TATAAAAATATATGCACACAAATAAAAAATTATATA [CACACA_site3629] | 8.48 ± 0.53 |
| TCATAGCACAAAAAATGTACTTATTATTTAATATTT [XGTACX_site5687] | 8.15 ± 0.27 |
| ATGTGATAATTTAATAGTACATAACAGTTTAACAAT [XGTACX_site5854] | 8.83 ± 0.3 |
| TTTGTTTTATGTGGTTGTACACAAATACAATTTAAA [XGTACX_site5156] | 8.46 ± 0.28 |
| TTTTTTATTAAATATATATAATAATAATAATTTGTA [CACACA_negctrl_site1719] | 7.9 ± 0.37 |
| TTATAATAAATATTTATTATATATAATATATATTAC [CACACA_negctrl_site1802] | 8.3 ± 0.35 |
| TATATTATATATTTATGTACGTATTTGTAAAAAGAT [XGTACX_site3444] | 8.76 ± 0.31 |
| ATAATAATTATATCAGTGCGCATATATATTTATTTA | 8.49 ± 0.2 |
| GTTTCCTTAATATTCACACACATATCTATAATATAT [CACACA_site6959] | 8.9 ± 0.38 |
| TTTATATGCAATTAAGTGCATAAGAAAAAAAAAGGA [GTGCAC_site9966] | 8.78 ± 0.12 |
| TTATAAAATAAACTTACACACATGAAATATTATAGT [CACACA_site7000] | 8.39 ± 0.32 |
| CAAACAAATTGTGAAACACACATATTTATATTTATA [CACACA_site7030] | 8.24 ± 0.3 |
| ATTATACAAAATGGTAAGGAAAAGGAAATTTTTTTT [CACACA_negctrl_site1090] | 8.25 ± 0.51 |
| CAATATTATATATATACACACATAATCTGTAAAAAC [CACACA_site1068] | 8.56 ± 0.42 |
| AAAAAAAAAAATATCACACACACATAAATATAAACA [CACACA_site7138] | 8.6 ± 0.61 |
| CATATATATATATATACACACATATATATTTTCTTT [CACACA_site1457] | 8.69 ± 0.15 |
| AAAGTAGGCTTATATGCACACTTTGAAATATTATAA [CACACA_site5117] | 8.41 ± 0.2 |
| ATGTCAAATTTTTGTGCACACATATATAGTTATTAT [CACACA_site2242] | 9.16 ± 0.13 |

— the supplement of paper PMC11417369
